In all, about 330,000 compounds went through this assay and about 80 (0.02%) were called active. The inconclusive results got no clear call from the source; some entries with a clear call stand among them for comparison. The call rests on the fitted dose curve; in most records, active means well fitted activation curve with a large enough effect; inconclusive means small, poorly fitted or top-dose-only effect; inactive means flat fitted curve, though single readings scatter. Potencies of inconclusive entries are left out as doubtful fits.
molecular target: Beta-2 adrenergic receptor (Homo sapiens) (UniProt P07550); assay: qHTS assay of beta-arrestin-biased ligands of beta2-adrenergic receptor; settings: beta-arrestin recruitment to beta2AR, cell-based reporter; series mostly up to 46.1 µM; further: nearly all actives have a fitted effect of over 65% in size
Sequence of UniProt P07550 (P07550 whole entry, looked up): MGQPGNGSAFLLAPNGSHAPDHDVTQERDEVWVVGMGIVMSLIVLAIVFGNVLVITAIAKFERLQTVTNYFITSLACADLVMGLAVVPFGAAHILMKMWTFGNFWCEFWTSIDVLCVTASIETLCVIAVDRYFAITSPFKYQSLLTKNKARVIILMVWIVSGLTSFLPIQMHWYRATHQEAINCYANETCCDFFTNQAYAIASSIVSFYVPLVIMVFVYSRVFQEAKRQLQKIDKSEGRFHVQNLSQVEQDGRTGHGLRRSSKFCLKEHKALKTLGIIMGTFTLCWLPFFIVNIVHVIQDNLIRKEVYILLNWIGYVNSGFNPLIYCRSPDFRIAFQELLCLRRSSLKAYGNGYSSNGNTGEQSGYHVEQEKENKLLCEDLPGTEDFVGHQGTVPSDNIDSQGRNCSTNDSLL
Summary of the method: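 Agonism was measured as beta-arrestin recruitment to recombinant beta2-AR, releasing tTA to drive luciferase. Cells were exposed for 18 hr at 37 degrees C to a series up to 46 microM. %Activity from corrected luminescence gave concentration-response curves.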
Potency means the concentration at half of the fitted maximal effect; tags describe the fitted curve by direction and shape.

Row | Structure (SMILES) | Potency
1 | CCOc1ccccc1N=Nc1c(C)[nH]n(C(N)=S)c1=O | inconclusive [rising, single point]
2 | COc1ccc(NC(=O)c2cc(S(=O)(=O)N3CCc4ccccc43)cn2C)c(OC)c1 | inconclusive [rising, single point]
3 | COc1ccc(/C=C/c2ccncc2)cc1 | inactive
4 | CN1CCN(C(c2ccccn2)c2cc(Cl)c3cccnc3c2O)CC1 (configuration not stated) | inconclusive [rising, single point]
5 | COC(=O)c1c(C(=O)OC)c2ccccn2c1C(=O)c1ccc([N+](=O)[O-])cc1 | inactive
6 | CCCN1C[C@H](CSC)C[C@@H]2c3cccc4[nH]cc(c34)C[C@H]21 | inactive
7 | Cc1ccc(NC(=O)COC(=O)CN2C(=O)COc3ccccc32)cc1 | inconclusive [rising, single point]
8 | O=C(CSc1n[nH]c(-c2ccccn2)n1)Nc1cccc(Cl)c1 | inconclusive [rising, single point]
9 | O=C(/C=C/c1ccc2c(c1)OCCCO2)c1ccccc1O | inconclusive [rising, single point]
10 | O=C1CCc2cc(S(=O)(=O)NCCC(=O)NC3CCCCC3)ccc2N1 | inactive
11 | COc1ccccc1NC(=O)COC(=O)c1ccc2ccccc2n1 | inconclusive [rising, single point]
12 | CCCCn1c(N)c(N(CCC(C)C)C(=O)CSc2nncn2-c2ccccc2)c(=O)[nH]c1=O | inconclusive [rising, single point]
13 | CCCc1nnc(SCC(=O)O)n1/N=C/c1ccc2c(c1)OCO2 | inconclusive [rising, single point]
14 | Fc1ccc(NC(=S)N/N=C/c2ccc(F)c(F)c2)cc1 | inconclusive [rising, single point]
15 | Cc1ccc(C)c(NC(=S)N2CCC(c3nc4ccccc4s3)CC2)c1 | inactive
16 | N#Cc1c(F)cccc1N1CCN(Cc2ccc3c(c2)OCO3)CC1 | inactive
17 | CN(C)CCn1c2c(c(SCC(=O)NCc3ccccc3)nc1=O)CCCC2 | inconclusive [rising, single point]
18 | COc1ccc(-c2cc(NCCc3ccncc3)n3ncnc3n2)cc1 | inactive
19 | O=c1c2cc(NC(=S)NCCCN3CCC(Cc4ccccc4)CC3)ccc2nc2n1CCCCC2 | inactive
20 | Cc1ccc(SCC(=O)NC(=O)NCc2ccccc2)c(C)c1 | inconclusive [rising, single point]
21 | NC(=O)N=Nc1c2[nH]c3ccccc3nc-2c2ccccc12 | inactive
22 | COc1ccc(/C=C/c2ccc3cccc(O)c3n2)c(OC)c1OC | inconclusive [rising, single point]
23 | O=C(NCCS(=O)(=O)N1CCN(c2cccc(Cl)c2)CC1)C1CCCC1 | inactive
24 | CCCC(=O)N(c1ccc(F)cc1)C1C=CS(=O)(=O)C1 (configuration not stated) | inconclusive [rising, single point]

Row | Structure (SMILES) | Potency
25 | COc1ccc(NC(=O)Nc2sc(=S)n(C)c2C)cc1 | inconclusive [rising, single point]
26 | CCOc1ccc(C(C)=O)cc1COC(=O)c1ccc2c(c1)NC(=O)CS2 | inconclusive [rising, single point]
27 | CC(C)Cn1c(Cc2ccccc2)n[nH]c1=S | inconclusive [rising, single point]
28 | CNC(=S)N/N=C/c1ccc(N2CCOCC2)s1 | inconclusive [rising, single point]
29 | Oc1ccccc1/C=N/NC(=S)NC1CC2C=CC1C2 (configuration not stated) | inconclusive [rising, single point]
30 | CCOC(=O)C1CCN(C(=O)c2ccccc2NS(=O)(=O)c2ccc(F)c(F)c2)CC1 | inconclusive [rising, single point]
31 | C[C@H](NC(=O)c1ccccc1)C(=O)OCC(=O)Nc1ccc2c(c1)OCO2 | inconclusive [activator, partial curve]
32 | O=C1c2cccc3c([N+](=O)[O-])ccc(c23)C(=O)N1c1ccccn1 | inconclusive [activator, partial curve]
33 | S=c1ccc2ccccc2[nH]1 | inconclusive [rising, single point]
34 | OCC1OC(n2cnc3c(NC4CCCCC4)ncnc32)C(O)C1O (configuration not stated) | inactive
35 | CCCCC(=O)N1CCCC(c2nc(-c3cccc(OC)c3)no2)C1 (configuration not stated) | inconclusive [rising, single point]
36 | Cc1cc(N2Cc3ccccc3C2)ccc1C=O | inconclusive [rising, single point]
37 | O=C(Nc1cccc(Cl)c1Cl)C1CCCO1 (configuration not stated) | inactive
38 | CCN(CC)C(=S)SCC(=O)c1ccc(F)cc1 | inconclusive [rising, single point]
39 | COCCN(C(=O)COC(=O)c1c(-c2ccccc2)noc1C)c1c(N)n(Cc2ccccc2)c(=O)[nH]c1=O | inconclusive [rising, single point]
40 | COc1ccc(C2CC(c3ccccc3)=NN2C(=O)COC(=O)c2cccc(N)c2)cc1 (configuration not stated) | inconclusive [rising, single point]
41 | COc1cccc(NC(=S)N/N=C2\CC(C)(C)Oc3ccc(O)cc32)c1 | inconclusive [rising, single point]
42 | CCOC(=O)C1(O)CC(C)=NN1C(=O)c1cccc(Cl)c1 (configuration not stated) | inconclusive [rising, single point]
43 | COc1ccc(N2CCC(CNC(=S)Nc3c(C)cc(C)cc3C)C2)cc1 (configuration not stated) | inactive
44 | Cc1ccc(/C=N/n2cc(-c3ccccc3)[nH]c2=S)s1 | inconclusive [activator, full curve]
45 | O=C1CCCC2=C1C(c1ccc3c(c1)OCO3)c1c([nH]n(-c3ccccc3)c1=O)N2 (configuration not stated) | inconclusive [rising, single point]
46 | CCc1cc2c(SCC(=O)Nc3ccc(Cl)cn3)ncnc2s1 | inconclusive [rising, single point]
47 | CN1CCN(Cc2cc(COCc3ccccc3)c3cccnc3c2O)CC1 | active: 2.51 µM
48 | COc1ccc(NC(=S)N2CCc3ccccc3C2)cc1 | inconclusive [rising, single point]

Row | Structure (SMILES) | Potency
49 | Cc1ccccc1Nc1nc(N)nc(COC(=O)c2cccc(S(=O)(=O)NCc3ccccc3)c2)n1 | inconclusive [rising, single point]
50 | C=CCNC(=S)N/N=C(\C)c1cccc(OC)c1 | inconclusive [rising, single point]
51 | Cc1ccc2c(c1)[C@H]1[C@H](CO2)[C@H](c2ccccc2)[C@]2(C)C(=O)Nc3ccccc3C(=O)N12 | inconclusive [activator, full curve]
52 | Oc1[nH]c2ccc(Br)cc2c1N=NC(=S)NCC1CCCO1 (configuration not stated) | inconclusive [rising, single point]
53 | Cc1cccc(NC(=O)CSc2nnnn2-c2cccnc2)c1 | inconclusive [rising, single point]
54 | COc1ccc(-c2n[nH]c(=S)n2-c2ccc(C)cc2)cc1OC | inactive
55 | CCOc1ccc(/C=N/n2cc(-c3ccccc3)[nH]c2=S)cc1 | inconclusive [rising, single point]
56 | O=C(NCC1CCCO1)C(c1cccs1)N(Cc1cccs1)C(=O)c1ccc(-c2ccccc2)[nH]1 (configuration not stated) | inconclusive [rising, single point]
57 | Cc1ccc(S(=O)(=O)Cc2ccc(C(=O)N3CCN(c4cc(C)ccc4C)CC3)o2)cc1 | inactive
58 | Cc1ccc(NC(=O)C(Nc2cccc(C)c2)c2ccccc2)cc1 (configuration not stated) | inconclusive [rising, single point]
59 | NC(=S)NNc1ccc(Cl)c(Cl)c1 | inactive
60 | C=CCNC(=S)N/N=C(\C)c1cccnc1 | inconclusive [rising, single point]
61 | CNC(=S)N/N=C1\CC(c2ccccc2)Oc2ccccc21 (configuration not stated) | inconclusive [rising, single point]
62 | CN(CC(=O)Nc1ccccc1Cl)C(=O)COC(=O)c1nc(Cl)c(Cl)c(Cl)c1Cl | inconclusive [rising, single point]
63 | O=C1CC(NS(=O)(=O)c2ccc([N+](=O)[O-])cc2)CN1c1cccc(F)c1 (configuration not stated) | inactive
64 | CCCCOC(=O)c1cc(Cl)c(O)c(OC)c1 | inconclusive [rising, single point]
65 | O=C(CN1C(=O)C2C3CC(C(Br)C3Br)C2C1=O)N1CCN(Cc2ccccc2)CC1 (configuration not stated) | inconclusive [rising, single point]
66 | CNC(=S)N/N=C1\C(=O)c2cccc3cccc1c23 | active: 3.55 µM
67 | CC(C)c1ccc(S(=O)(=O)N2CCN(C(=S)NCc3ccco3)CC2)cc1 | inconclusive [rising, full curve, poor fit]
68 | CCCCCCSc1ccc(-c2nc3ccc(C)cn3c2NCc2ccccc2)cc1OC | inactive
69 | O=c1[nH]c(/C(=N\O)c2ccccc2)no1 | inconclusive [rising, single point]
70 | CCOc1ccc(NC(=O)CN(c2ccc([N+](=O)[O-])cc2)S(=O)(=O)c2ccccc2)cc1 | inconclusive [rising, single point]
71 | Cc1cc(Cl)ccc1OCC(=O)N1C(C)CCCC1C (configuration not stated) | inactive
72 | COc1ccc(N2C(=O)C3C(C2=O)C(C(=O)c2ccc(Cl)cc2)N2CCCC32)cc1 (configuration not stated) | inconclusive [rising, single point]

Source: PubChem BioAssay AID492947 (National Center for Advancing Translational Sciences (NCATS), 2010)
